Data as given in the supplement of paper PMC4967469.
A lower IC50 marks a more sensitive line; where the fit passes the top or lowest dose, that dose stands as a limit. The AUC spans the tested range (256-fold, ending at the top dose) of the same fit; the more sensitive the line, the further below 1. For part of these data: The top dose, if marked as inferred, was calculated from the reported fits. For part of these data: Where an entry number is given, a second screen of the drug exists; the two often differ.

Legend:
Assay in all cases: Viability of human cancer cell lines after 72 h of drug (GDSC screen)
MP470 = compound: S=C(NCc1ccc2c(c1)OCO2)N1CCN(c2ncnc3c2oc2ccccc23)CC1 [MP470]; details: top dose 20 µM; top dose inferred
Description: (§1)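 Human cancer cell lines in 384-well plates, medium with 10% serum, drug for 72 h over a 256-fold dose range (nine 2-fold or five 4-fold steps up to the top dose). Adherent lines were fixed and stained with the nucleic acid dye Syto60, suspension lines read with resazurin; signal relative to control wells, capped at 0 and 100%. One two-parameter sigmoid per drug and line, fitted in a mixed model over all curves with the slope shared within a line.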

Gemcitabine = compound: Nc1ccn([C@@H]2O[C@H](CO)[C@@H](O)C2(F)F)c(=O)n1 [Gemcitabine]; details: top dose 1.024 µM
Description: as §1

AUY922 = compound: CCNC(=O)c1noc(-c2cc(C(C)C)c(O)cc2O)c1-c1ccc(CN2CCOCC2)cc1 [AUY922]; details: top dose 0.256 µM; top dose inferred
Description: as §1

LFM-A13 = compound: C/C(O)=C(\C#N)C(=O)Nc1cc(Br)ccc1Br [LFM-A13]; details: top dose 16 µM; top dose inferred
Description: as §1

T0901317 = compound: O=S(=O)(c1ccccc1)N(CC(F)(F)F)c1ccc(C(O)(C(F)(F)F)C(F)(F)F)cc1 [T0901317]; details: top dose 10.24 µM; top dose inferred
Description: as §1

TW-37 = compound: CC(C)c1ccccc1Cc1cc(C(=O)Nc2ccc(S(=O)(=O)c3ccccc3C(C)(C)C)cc2)c(O)c(O)c1O [TW-37]; details: top dose 5 µM
Description: as §1

Bicalutamide = compound: CC(O)(CS(=O)(=O)c1ccc(F)cc1)C(=O)Nc1ccc(C#N)c(C(F)(F)F)c1 [Bicalutamide]; details: top dose inferred
Description: as §1

KIN001-270 = compound: Cc1ccc(Nc2cc(-c3cccc(N4C(=O)c5ccccc5C4=O)c3)ncn2)cc1NS(C)(=O)=O [KIN001-270]; details: top dose 20 µM; top dose inferred
Description: as §1

[1] = top dose 1.024 µM, screen: GDSC drug entry 150
[2] = top dose 10 µM, screen: GDSC drug entry 1502

Cell Line | AUC (MP470) | IC50 (MP470) [nM] | AUC (Gemcitabine) | IC50 (Gemcitabine) [nM] | AUC (AUY922) | IC50 (AUY922) [nM] | AUC (LFM-A13) | IC50 (LFM-A13) [nM] | AUC (T0901317) | IC50 (T0901317) [nM] | AUC (TW-37) | IC50 (TW-37) [nM] | AUC (Bicalutamide; [1]) | IC50 (Bicalutamide; [1]) [nM] | AUC (Bicalutamide; [2]) | IC50 (Bicalutamide; [2]) [nM] | AUC (KIN001-270) | IC50 (KIN001-270) [nM]
NUGC-3 (stomach, adherent) | 0.931 | > 20000 | 0.314 | 18 | 0.66 | 47.3 | 0.972 | > 16000 | 0.97 | > 10200 | 0.712 | 1350 | 0.984 | > 1020 | 0.976 | > 10000 | 0.974 | > 20000
OAW-28 (ovary, adherent) | 0.924 | > 20000 | 0.487 | 58.2 | 0.854 | > 256 | 0.953 | > 16000 | 0.977 | > 10200 | 0.522 | 364 | 0.982 | > 1020 | 0.951 | > 10000 | 0.977 | > 20000
OAW-42 (ovary, adherent) | 0.814 | 12000 | 0.566 | 98.5 | 0.62 | 35.3 | 0.95 | > 16000 | 0.951 | > 10200 | 0.565 | 479 | 0.974 | > 1020 | 0.969 | > 10000 | 0.985 | > 20000
OSC-19 (head and neck, adherent) | 0.96 | > 20000 | 0.643 | 162 | 0.5 | 16 | 0.985 | > 16000 | 0.987 | > 10200 | 0.603 | 608 | 0.987 | > 1020 | 0.983 | > 10000 | 0.979 | > 20000
OVCAR-3 (ovary, adherent) | 0.987 | > 20000 | 0.683 | 221 | 0.775 | 112 | 0.955 | > 16000 | 0.987 | > 10200 | 0.549 | 432 | 0.984 | > 1020 | 0.982 | > 10000 | 0.986 | > 20000
OVCAR-5 (ovary, adherent) | 0.982 | > 20000 | 0.428 | 38.9 | 0.555 | 23.3 | 0.954 | > 16000 | 0.982 | > 10200 | 0.615 | 691 | 0.981 | > 1020 | 0.959 | > 10000 | 0.979 | > 20000
OVCAR-8 (ovary, adherent) | 0.978 | > 20000 | 0.157 | 6.68 | 0.539 | 20.2 | 0.986 | > 16000 | 0.984 | > 10200 | 0.51 | 332 | 0.99 | > 1020 | 0.989 | > 10000 | 0.952 | > 20000
OVISE (ovary, adherent) | 0.936 | > 20000 | 0.61 | 142 | 0.698 | 69.8 | 0.942 | > 16000 | 0.981 | > 10200 | 0.536 | 405 | 0.981 | > 1020 | 0.971 | > 10000 | 0.978 | > 20000
